Test results published in the supplement of paper PMC10126150.
Sequences with one replicate were seen in a single cluster, so their values are uncertain.

System: ATP
Experiment: switch fluorescence ratio, 500 uM ATP over buffer (Cy3 cluster intensity, sum of 5 cycles each) (fold (ratio)); higher = stronger signal-on switching upon ATP binding; sequences stand for … in TCGTCGGCAGCGTCAGATGTGTATAAGAGACAGTTTTTTTTTTTTTTTTTTTTTTTTT…TC
Details: aptamer strand: ATP DNA aptamer (quencher-CACCTGGGGGAGTATTGCGGAGGAAGG + anchor), 100 nM annealed; ATP concentration: 500 uM; one replicate
How it was run: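 Values give the fluorescence ratio for each switch-domain sequence, averaged from per-cluster ratios of summed target-cycle to summed buffer-cycle Cy3 intensity. The Cy3-labelled switching-strand clusters sat on a modified Illumina MiSeq flow-cell, were annealed to 100 nM quencher-labelled ATP aptamer, and were imaged in selection buffer, then after 15 min with 500 uM ATP at 22 °C. Five cycles ran with NaOH stripping and re-annealing between them, and clusters outside 100-1000 RFU were excluded.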
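Also: ATP exposure 15 min at 22 °C before imaging.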

Row | Sequence | switch fluorescence ratio
1 | TGCCCGATGA | 0.964
2 | TGCCCGGTGT | 1.46
3 | TGCCCTCCGA | 2.1
4 | TGCCCTCGTT | 0.989
5 | TGCCCTGTCG | 0.98
6 | TGCCGAATGC | 1.17
7 | TGCCGAATGG | 1
8 | TGCCGACATA | 1.03
9 | TGCCGATTCC | 1.09
10 | TGCCGCGGCA | 1.04
11 | TGCCGGAGAA | 1.01
12 | TGCCGGCAGG | 1.07
13 | TGCCGGTAC | 1.22
14 | TGCCGTCGCT | 0.976
15 | TGCCGTTTGA | 1.01
16 | TGCCTAAGTC | 1.03
17 | TGCCTATCGC | 1.04
18 | TGCCTGATT | 1.03
19 | TGCCTGCCGA | 1.15
20 | TGCCTGCTCC | 1.08
21 | TGCCTGGGTA | 1.04
22 | TGCCTGTGGT | 0.96
23 | TGCCTTCAGC | 0.993
24 | TGCCTTGAAT | 0.996
25 | TGCCTTGCAT | 0.984
26 | TGCGAA | 1.01

Row | Sequence | switch fluorescence ratio
27 | TGCGAAAGTG | 1
28 | TGCGAACGAT | 1.05
29 | TGCGAAGTCG | 1.03
30 | TGCGACCGGT | 0.968
31 | TGCGATATAC | 2.59
32 | TGCGCACCGG | 0.992
33 | TGCGCAGAAG | 0.971
34 | TGCGCAGACA | 1.02
35 | TGCGCGACAT | 1.09
36 | TGCGCTCCCA | 1.15
37 | TGCGGCTGTA | 1
38 | TGCGGGAACC | 1.02
39 | TGCGGGTTCG | 1.08
40 | TGCGGTATGC | 1.04
41 | TGCGTCACGT | 1.02
42 | TGCGTCCTGG | 0.989
43 | TGCGTCGAGT | 1
44 | TGCGTCGGCT | 1.04
45 | TGCGTCTGC | 1.06
46 | TGCGTGATA | 1.02
47 | TGCGTGGTTT | 1.02
48 | TGCGTGTTGG | 1.01
49 | TGCGTTATTT | 0.952
50 | TGCGTTGAAC | 1
51 | TGCGTTTGAG | 1.01
52 | TGCGTTTTGA | 0.951

Row | Sequence | switch fluorescence ratio
53 | TGCTAAGTGG | 0.962
54 | TGCTAGCCCT | 1.03
55 | TGCTAGCGGA | 0.983
56 | TGCTAGCTCA | 1.07
57 | TGCTAGGTTA | 0.971
58 | TGCTATAGCC | 1
59 | TGCTATTCCC | 1.06
60 | TGCTATTGCT | 1.04
61 | TGCTC | 1.03
62 | TGCTCACATT | 0.963
63 | TGCTCATCCG | 1.13
64 | TGCTCCCCCG | 3.71
65 | TGCTCCTGGA | 1.05
66 | TGCTCGCCCG | 1.01
67 | TGCTCGGCAA | 3.16
68 | TGCTCGTACG | 1.01
69 | TGCTCTATGT | 0.983
70 | TGCTGAACG | 1.02
71 | TGCTGAAGTG | 1.06
72 | TGCTGAGCT | 1.06
73 | TGCTGATAGC | 0.994
74 | TGCTGATCCT | 1.01
75 | TGCTGCCGCA | 1.14
76 | TGCTGGCATT | 0.976
77 | TGCTGGGCGC | 0.976
78 | TGCTGTGGCA | 1.01

Row | Sequence | switch fluorescence ratio
79 | TGCTTATACT | 1.2
80 | TGCTTCCTTC | 1.38
81 | TGCTTCGTAT | 1.05
82 | TGCTTTGGCG | 1.03
83 | TGGAAAACGG | 1.01
84 | TGGAAACAGA | 0.989
85 | TGGAACAC | 1
86 | TGGAACGGAA | 1.05
87 | TGGAACGGCC | 0.989
88 | TGGAAGCATA | 2.05
89 | TGGAAGCTG | 1.05
90 | TGGAAGTCAC | 1.08
91 | TGGAATCCTA | 0.969
92 | TGGAATGATT | 1.09
93 | TGGAATTGCA | 1
94 | TGGACACACA | 1.31
95 | TGGACAGGCC | 1.06
96 | TGGACGAGCA | 1.07
97 | TGGACGCTGG | 1.07
98 | TGGACGCTTC | 1.24
99 | TGGACGTCCA | 1.04
100 | TGGACTAAGC | 1
101 | TGGACTAATG | 1.08
102 | TGGACTGATT | 0.997
103 | TGGACTGCAT | 1.05
104 | TGGACTTGTT | 0.943

Row | Sequence | switch fluorescence ratio
105 | TGGAGAATCT | 1.04
106 | TGGAGAGGAA | 0.997
107 | TGGAGAGGCG | 0.986
108 | TGGAGCTAAG | 1.1
109 | TGGAGCTGTG | 1.2
110 | TGGAGCTTGT | 0.936
111 | TGGAGGTTTG | 0.947
112 | TGGAGTTCTA | 0.985
113 | TGGATAGCGA | 1
114 | TGGATAGGCG | 0.942
115 | TGGATCCCGA | 0.952
116 | TGGATCGACT | 1.02
117 | TGGATGCATA | 0.99
118 | TGGATGCGGT | 0.974
119 | TGGATTAACT | 0.996
120 | TGGATTTCGA | 1.03
121 | TGGCAAACAC | 1.17
122 | TGGCAATAAT | 2.33
123 | TGGCACGGCC | 0.968
124 | TGGCAGCGGC | 0.982
125 | TGGCATAAAA | 0.983
126 | TGGCATGTTT | 1.01
127 | TGGCCCACGT | 0.997
128 | TGGCCCGCCG | 0.965
129 | TGGCCCGTAA | 1.09
130 | TGGCCGATAA | 1.11

Row | Sequence | switch fluorescence ratio
131 | TGGCCGTACC | 1.21
132 | TGGCGACACT | 0.965
133 | TGGCGACCGG | 1
134 | TGGCGCCTTA | 0.988
135 | TGGCGCGCCC | 0.945
136 | TGGCGGAGAT | 1.01
137 | TGGCGGCGGG | 1
138 | TGGCGTTGTA | 1.01
139 | TGGCTAATTG | 0.986
140 | TGGCTACTAG | 0.998
141 | TGGCTAGGGG | 1.73
142 | TGGCTCTGCG | 1.02
143 | TGGCTGTC | 0.978
144 | TGGCTTTCCC | 1.03
145 | TGGGAATAGA | 1.06
146 | TGGGAATGGA | 1.03
147 | TGGGAGGTAT | 1.01
148 | TGGGATAATT | 0.967
149 | TGGGATGAAT | 0.975
150 | TGGGCAACGT | 1.03
151 | TGGGCAGTGT | 1.04
152 | TGGGCATTCT | 1.05
153 | TGGGCCTTTG | 0.979
154 | TGGGCGGGCC | 1.01
155 | TGGGCTGAGC | 0.98
156 | TGGGCTTTTG | 1.69

Row | Sequence | switch fluorescence ratio
157 | TGGGGAAACA | 1.02
158 | TGGGGAAGTA | 0.981
159 | TGGGGAATCA | 1.06
160 | TGGGGACTGT | 0.996
161 | TGGGGAGAGA | 0.957
162 | TGGGGATGCC | 1.02
163 | TGGGGCAAT | 1.26
164 | TGGGGCACCA | 0.993
165 | TGGGGCAGTT | 1.06
166 | TGGGGCATCC | 1.09
167 | TGGGGCCACG | 1.02
168 | TGGGGCCTAG | 1.01
169 | TGGGGCGATG | 0.943
170 | TGGGGGCCTA | 1.04
171 | TGGGGTGAGT | 1.02
172 | TGGGTCAGAA | 0.958
173 | TGGGTGCGCT | 0.975
174 | TGGGTGGACG | 1.01
175 | TGGGTGGCTT | 0.962
176 | TGGGTGTTG | 0.97
177 | TGGGTTGCAC | 1.01
178 | TGGGTTTGCA | 1.01
179 | TGGTAACGCC | 1.06
180 | TGGTAAGGAC | 1.06
181 | TGGTAATGCG | 0.976
182 | TGGTACACCC | 1.13

Row | Sequence | switch fluorescence ratio
183 | TGGTAGCCTA | 1.04
184 | TGGTAGTA | 0.997
185 | TGGTATATGC | 0.99
186 | TGGTATATGT | 0.986
187 | TGGTATGAG | 1.01
188 | TGGTATGGGA | 0.954
189 | TGGTATTCCC | 1.02
190 | TGGTCACGCT | 0.997
191 | TGGTCAGCCG | 1.06
192 | TGGTCATTTA | 1.04
193 | TGGTCCCCCA | 0.954
194 | TGGTCCCGAT | 1.28
195 | TGGTCCCTGG | 1.04
196 | TGGTCCTAGC | 1.03
197 | TGGTCGAAGA | 0.951
198 | TGGTCGCCTA | 1.03
199 | TGGTCGGCCT | 0.968
200 | TGGTCTAAC | 0.969
201 | TGGTCTGGAT | 0.965
